Not every detail of the peptide structures is certain; ends, links or a residue may be inferred. Where a SMILES comes first, the peptide text is derived from it. Where no end group is shown, it is not given here.
Experiments:
E. coli CCARM 1229 [1] = test: Depolarization of bacteria (DiSC3-5); type: cell-based, Escherichia coli
[2] = Peptide structure in liposome by CD; type: physicochemical; details: PE:PG 7:3, 1 mM liposome, 50 μM
C. rugosa = test: MIC in fungi; type: cell-based
C. glabrata = test: MIC in fungi; type: cell-based
E. coli CCARM 1229 [3] = test: MIC in antibiotic-tolerant strains; type: cell-based, Escherichia coli; details: PBS (number in bracket)
[4] = Peptide structure in liposome by CD; type: physicochemical; details: PC:CH 10:1, 1 mM liposome, 50 μM
L. monocytogenes = type: cell-based, Listeria monocytogenes; details: PBS (number in bracket)
Excerpt: To measure the antibacterial activity of the peptide prepared in Example 1, the present inventors measured MIC, the minimal concentration that can keep the strain without being divided. For the measurement of antibacterial activity, Gram-positive bacteria selected from the group consisting of Bacillus subtilis, Staphylococcus aureus and Listeria monocytogenes, Gram-negative bacteria selected from the group consisting of Escherichia coli, Psedomonas aeruginosa and Salmonella typhimurium, and antibiotic-tolerant strains selected from the group consisting of E. coli (E. coli CCARM 1229, 1238), Salmonella (S. typhimurium CCARM 8007, 8009, 8013) and Staphylococcus (S. aureus CCARM 3089, 3090, 3108, 3114, 3126) were used. After cultured in optimal media, the strains were diluted at the density of 2×10^5 cells/ml, which were then inoculated on microtitrate plates. The peptide synthesized in Example 1 and the positive control peptide (Melittin) were 2-fold diluted in sodium phosphate buffer and phosphate buffered saline (PBS) from 200 μM/well, which were added in the plate, followed by culture at 37° C. for 18˜24 hours. OD620 was measured with a microtitrate plate reader to determine MIC of each strain. The results are presented in Table 1 (the number in bracket indicates the one obtained from PBS).

P. aeruginosa = test: MIC in bacteria; type: cell-based, Psedomonas aeruginosa; details: PBS (number in bracket)
C. melibiosica = test: MIC in fungi; type: cell-based
C. intermidia = test: MIC in fungi; type: cell-based
S. typhimurium = test: MIC in bacteria; type: cell-based, Salmonella typhimurium; details: PBS (number in bracket)
S. aureus CCARM 3090 [5] = test: Depolarization of bacteria (DiSC3-5); type: cell-based, Staphylococcus aureus
C. catenulate = test: MIC in fungi; type: cell-based
C. albicans = test: MIC in fungi; type: cell-based, Candida albicans
S. aureus CCARM 3090 [6] = test: Time dependent apoptosis (colony count); type: cell-based, Staphylococcus aureus
E. coli CCARM 1229 [7] = test: Time dependent apoptosis (colony count); type: cell-based, Escherichia coli
C. albicans CCARM 14001 = test: MIC in antibiotic-tolerant fungi; type: cell-based, Candida albicans; details: RMPI 1640
Protocol: (§1) To measure the fungicidal activity of the peptide prepared in Example 1, the present inventors measured MIC, the minimal concentration that can keep the strain without being divided. For the measurement of fungicidal activity, pathogenic fungi selected from the group consisting of Candida albicans, C. catenulate, C. intermidia, C. rugosa, C. glabrata and C. melibiosica were used. After cultured in optimal media, the strains were diluted at the density of 2×10^5 cells/ml, which were then inoculated on microtitrate plates. The peptide synthesized in Example 1 and the positive control peptide (Melittin) were 2-fold diluted in solution 1 (10 mM sodium phosphate buffer, pH 7.2) and solution 2 (phosphate buffered saline) from 128 μM/well, which were added in the plate, followed by culture at 37° C. for 18˜24 hours. OD620 was measured with a microtitrate plate reader to determine MIC of each strain.
(§2) To measure the fungicidal activity of the peptide of the present invention in antibiotic-tolerant fungi, MIC of the peptide was measured by the same manner as described in Example <2-2> using RMPI 1640 and antibiotic-tolerant Candida albicans (C. albicans CCARM 14001, 14007, 14020).

C. albicans CCARM 14020 = test: MIC in antibiotic-tolerant fungi; type: cell-based, Candida albicans; details: RMPI 1640
Protocol: as §1, §2

C. albicans CCARM 14007 = test: MIC in antibiotic-tolerant fungi; type: cell-based, Candida albicans; details: RMPI 1640
Protocol: as §1, §2

[8] = Peptide aggregation by spectrofluorometer (tryptophan fluorescence); type: physicochemical; details: in PBS, 1~18 μM peptide
[9] = test system: general strains (Gram-positive and Gram-negative bacteria); test: MIC comparison in general strains; type: cell-based
[10] = Sol. 1 (10 mM sodium phosphate buffer, pH 7.2)
[11] = Sol. 2 (phosphate buffered saline)
[12] = DiSC3-5 fluorescence, different concentrations

Compound	peptide structure (CD) [2]	MIC (C. rugosa; [10])	MIC (C. rugosa; [11])	MIC (C. glabrata; [10])	MIC (C. glabrata; [11])	peptide structure (CD) [4]	MIC (L. monocytogenes)	MIC (P. aeruginosa)	MIC (C. melibiosica; [10])	MIC (C. melibiosica; [11])	MIC (C. intermidia; [10])	MIC (C. intermidia; [11])	MIC (S. typhimurium)	MIC (C. catenulate; [10])	MIC (C. catenulate; [11])	MIC (C. albicans; [10])	MIC (C. albicans; [11])	depolarization (E. coli CCARM 1229 [1]; 25 μM peptide)	time of culture until bactericidal activity (S. aureus CCARM 3090 [6]; peptide at MIC)	time of culture until bactericidal activity (S. aureus CCARM 3090 [6]; peptide at double the MIC)	other results
KWKWKW-NH2 [SEQ. ID. NO: 2]	did not form any specific structure	8 µM	32 µM	16 µM	32 µM	did not form any specific structure	(25) μM	(25) μM	8 µM	32 µM	8 µM	32 µM	(6.25) μM	8 µM	16 µM	8 µM	32 µM	–	–	–	depolarization (E. coli CCARM 1229 [1]; 50 μM peptide): approximately 20%; MIC (E. coli CCARM 1229 [3]): (100) μM; depolarization (S. aureus CCARM 3090 [5]; 50 μM peptide): approximately 20%
KWKWKWKWKW-NH2 [SEQ. ID. NO: 4]	structural change of folding	32 µM	8 µM	16 µM	4 µM	structural change of folding	(3.12) μM	(6.25) μM	32 µM	8 µM	32 µM	4 µM	(3.12) μM	32 µM	8 µM	16 µM	8 µM	approximately 80%	50 min	35 min	depolarization (S. aureus CCARM 3090 [5]; 25 μM peptide): approximately 80%; time of culture until bactericidal activity (E. coli CCARM 1229 [7]; peptide at MIC): 50 min; time of culture until bactericidal activity (E. coli CCARM 1229 [7]; peptide at double the MIC): 35 min; MIC (C. albicans CCARM 14001): 8 µM; MIC (C. albicans CCARM 14020): 8 µM; MIC (C. albicans CCARM 14007): 16 µM
NCCCC[C@H](NC(=O)[C@H](Cc1c[nH]c2ccccc12)NC(=O)[C@@H](N)CCCCN)C(=O)N[C@@H](Cc1c[nH]c2ccccc12)C(N)=O [SEQ. ID. NO: 1] (H-KWKW-NH2)	did not form any specific structure	–	–	–	–	did not form any specific structure	–	–	–	–	–	–	–	–	–	–	–	–	–	–	depolarization of membrane (E. coli CCARM 1229 [1]; [12]): could not induce depolarization; depolarization of membrane (S. aureus CCARM 3090 [5]; [12]): could not induce depolarization
KWKWKWKW-NH2 [SEQ. ID. NO: 3]	structural change of folding	8 µM	–	8 µM	8 µM	structural change of folding	(3.12) μM	(3.12) μM	8 µM	8 µM	8 µM	8 µM	(1.56) μM	8 µM	8 µM	8 µM	8 µM	approximately 80%	20 min	10 min	peptide aggregation (maximum fluorescent light emission wavelength) [8]: did not show aggregation; times higher antibacterial activity than SEQ. ID. NO: 1 [9]: 64 times; times higher antibacterial activity than SEQ. ID. NO: 2 [9]: 16 times; times higher antibacterial activity than SEQ. ID. NO: 4 [9]: 8 times; depolarization (S. aureus CCARM 3090 [5]; 25 μM peptide): approximately 80%; time of culture until bactericidal activity (E. coli CCARM 1229 [7]; peptide at MIC): 20 min; time of culture until bactericidal activity (E. coli CCARM 1229 [7]; peptide at double the MIC): 10 min; MIC (C. albicans CCARM 14001): 32 µM; MIC (C. albicans CCARM 14020): 32 µM; MIC (C. albicans CCARM 14007): 32 µM

Source: patent US10301354B2, “Antibacterial and fungicidal peptide in which lysine and tryptophan residues are repeated, and use thereof” (priority 2011, dated 2019)
